Among all 330,000 compounds or so, about 4,200 (1.3%) were called active. The inconclusive results got no clear call from the source; some entries with a clear call stand among them for comparison. Calls follow the shape of the dose curve; as a rule, active = well fitted activation curve with a large enough effect; inconclusive = small, poorly fitted or top-dose-only effect; inactive = no such curve, though single readings can be large or run the other way. Potencies of inconclusive entries are doubtful fits and often do not repeat.
test: qHTS screen for small molecules that induce genotoxicity in human embryonic kidney (HEK293T) cells expressing luciferase-tagged ELG1; settings: HEK293T ELG1-luciferase reporter, luminescence, 16 h; series mostly up to 46 µM; also: nearly all actives have a fitted effect of over 60% in size
Method in brief: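 HEK293T cells expressing luciferase-tagged ELG1 were exposed to compound or DMSO vehicle for 16 hr at 37 °C and 5% CO2. Luciferase activity was then measured with ONE-Glo after 30 min at room temperature.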
Potency is read from the fitted curve at half-maximal effect; tags tell the direction and shape of the fitted curve.

Row | SMILES | Potency
1 | Cc1cccc(Nc2nc(N)nc(-c3oc4ccccc4c3C)n2)c1 | inconclusive: 20.6 µM [activator, single point]
2 | CCOC(=O)N1CCN(Cc2cc(Cl)c3cccnc3c2O)CC1 | inconclusive: 25.9 µM [activator, single point]
3 | C(=N\Nc1nccc(-c2cccnc2)n1)/c1ccccc1 | inactive
4 | COc1ccc2c(Cl)c(C(=O)NCc3ccco3)sc2c1 | active: 10 µM
5 | Cc1sc2ncnc(N3CCC(C(=O)Nc4nc5ccc(Cl)cc5s4)CC3)c2c1C | inconclusive: 18.3 µM [activator, partial curve, poor fit]
6 | O=C(Nc1nnc(-c2ccc(F)cc2)o1)c1ccc(S(=O)(=O)N2CCOCC2)cc1 | inactive
7 | COc1ccc(-c2csc(Nc3ccccc3)n2)cc1 | active: 2.06 µM
8 | CC(C)c1ccc(OCC(=O)N2CCCCCC2)c(Br)c1 | inconclusive: 20.6 µM [activator, partial curve]
9 | COc1ccc2c(C(=O)c3ccc(C)cc3)n(CCC(N)=O)[n+]([O-])c2c1 | inconclusive: 25.9 µM [activator, partial curve, poor fit]
10 | Clc1ccc(-c2n[nH]c3c2CCC3)c(Cl)c1 | inactive
11 | N#C/C(=N\Nc1ccccc1F)C(=N)N1CCCCC1 | active: 20.6 µM
12 | Oc1c(C(Nc2ccccn2)c2ccccn2)ccc2cccnc12 (stereo not given) | inconclusive: 29.1 µM [activator, single point]
13 | COc1ccc(C(=O)Nc2nnc(SCC(=O)NC3CC3)s2)cc1 | inconclusive: 0.92 µM [activator, partial curve]
14 | Cc1cccc(C)c1OCc1cc(C(=O)N2CC3C[C@@H]4CC2C[C@H](C3)C4)no1 | inactive
15 | CC(C)(C)c1ccc(OCCC(=O)Nc2cccc(S(=O)(=O)N3CCCC3)c2)cc1 | inconclusive: 6.51 µM [activator, partial curve, poor fit]
16 | N=C1SCC(=O)N1c1nc(-c2ccccc2)cs1 | inconclusive: 8.2 µM [activator, partial curve]
17 | Cc1ccc(C(=O)/C=C/Nc2ccc([N+](=O)[O-])cc2Br)cc1 | inconclusive: 9.2 µM [activator, partial curve]
18 | COc1cc(NC(=S)Nc2ccccn2)c(OC)cc1Cl | inconclusive: 32.6 µM [activator, partial curve, poor fit]
19 | COc1ccc(-c2cc(C(=O)N3CCN(c4ccccc4O)CC3)c3ccccc3n2)cc1OC | inactive
20 | C/C(=N\O)c1ccc2c3c([nH]c2c1)CCCC3 | inconclusive: 7.31 µM [activator, partial curve]
21 | CC(=O)Nc1nnc(SCc2cccc(F)c2)s1 | inconclusive: 14.6 µM [activator, partial curve, poor fit]
22 | O=C(NN/C(=N/S(=O)(=O)c1ccc(Cl)cc1)c1ccccc1)c1ccc(O)cc1 | inconclusive: 13 µM [activator, partial curve]
23 | O=C(O)c1cc(N/N=C/c2cccc3ccccc23)ccc1Cl | inconclusive: 16.4 µM [activator, partial curve]
24 | C=CCn1c(C)cc(C(=O)CSc2nc3ccccc3c(=O)[nH]2)c1C | active: 2.91 µM

Row | SMILES | Potency
25 | Cc1ccccc1NC(=O)c1onc2c1CCCC2 | inconclusive: 3.66 µM [activator, full curve, poor fit]
26 | CNC(=O)CSc1nnc(SCCC(=O)O)s1 | inactive
27 | CCC(=O)Nc1cccc(NC(=S)NC(=O)c2ccc(C)cc2)c1 | inconclusive: 3.26 µM [activator, full curve]
28 | CC(C)CCn1c(=O)c2ccccc2n2c(CCC(=O)NCC3CCCO3)nnc12 (stereo not given) | inactive
29 | Cc1cccc2cc(/C=N/Nc3ccc(C(=O)O)cc3)c(Cl)nc12 | active: 5.17 µM
30 | CCn1c2ccccc2c2cc(NC(=O)c3coc(=O)c(Br)c3)ccc21 | inconclusive: 29.1 µM [activator, single point]
31 | CCCc1[nH]nc2c1C(c1ccc(OCCN3CCOCC3)c(OC)c1)C(C#N)=C(N)O2 (stereo not given) | inconclusive: 11.6 µM [activator, partial curve]
32 | CC1(C)CCc2cc(-c3ccnc(=S)[nH]3)ccc2O1 | active: 1.46 µM
33 | CCN1C(=O)CC(c2ccccc2)N(C2CCCC2)c2nc(Nc3ccc(C(=O)NC4CCN(C)CC4)cc3OC)ncc21 (stereo not given) | inconclusive: 23.1 µM [activator, partial curve, poor fit]
34 | Cc1nn(-c2ccccc2)c(C)c1/C=N\NS(=O)(=O)c1ccc(Cl)cc1 | inactive
35 | c1ccc2oc(-c3csc(NCC4CCCO4)n3)cc2c1 (stereo not given) | active: 2.31 µM
36 | CC(=O)Nc1ccc(C(=O)Nc2ccc3c(c2)OCCO3)cc1 | inconclusive: 23.1 µM [activator, partial curve, poor fit]
37 | CCOC(=O)c1ccc2nc(NC(=O)c3ccco3)sc2c1 | inconclusive: 2.31 µM [activator, partial curve]
38 | Cn1c(=O)n(C)c2cc(NS(=O)(=O)c3ccccc3[N+](=O)[O-])ccc21 | inconclusive: 18.3 µM [activator, single point]
39 | COc1cccc(/C=N/NC(=S)NC2CC3CCC2C3)c1OC (stereo not given) | inactive
40 | Cc1c(O)ccc2c(CN(C)Cc3ccccc3)cc(=O)oc12 | inactive
41 | O=C(O)CN1C(=O)/C(=C\c2cccc(OCc3ccc(Cl)cc3Cl)c2)SC1=S | inconclusive: 18.3 µM [activator, partial curve, poor fit]
42 | CC(C)(C)c1ccc(NC(=O)C2=CC=CN3CCS(=O)(=O)N=C23)cc1 | inconclusive: 16.4 µM [activator, partial curve, poor fit]
43 | CS(=O)(=O)N1CCC(Oc2ccccc2C(=O)NC(C2CC2)C2CC2)CC1 | inactive
44 | N#C/C(=N\O)c1nc(-c2ccccc2)cs1 | inactive
45 | CC(C)c1ccc(C2NC(=O)c3ccccc3O2)cc1 (stereo not given) | inconclusive: 4.61 µM [activator, full curve, poor fit]
46 | O=C(Nn1cnnc1)c1cc(-c2cccc(Br)c2)nc2ccccc12 | inconclusive: 20.6 µM [activator, partial curve, poor fit]
47 | CCC(=O)Nc1nc2ccc3sc(C)nc3c2s1 | inconclusive: 11.6 µM [activator, partial curve]
48 | c1ccc(N2CC3CCc4ccccc4C3=N2)cc1 (stereo not given) | inconclusive: 20.6 µM [activator, single point]

Row | SMILES | Potency
49 | CN(CC(=O)Nc1ccc(Cl)c(Cl)c1)C(=O)CNC(=O)Cc1ccccc1 | inactive
50 | Cc1cc(=O)[nH]c2ccc(S(=O)(=O)NCc3ccccc3)cc12 | inconclusive: 13 µM [activator, partial curve, poor fit]
51 | CN(C)c1ccc(N=Cc2nc(-c3ccccc3)oc2OC(=O)c2cccc(Br)c2)cc1 | inconclusive: 14.6 µM [activator, partial curve]
52 | Cc1ccc(-c2csc(NC(=O)Cc3cccs3)n2)cc1C | inconclusive: 9.2 µM [activator, partial curve]
53 | CN(C)c1ccc(/C=N/NC(=O)c2ccccc2)cc1 | inconclusive: 2.59 µM [activator, partial curve]
54 | Cc1c(Br)cc(C(=O)N2CCCC2)c(C)c1C | inconclusive: 32.6 µM [activator, partial curve, poor fit]
55 | Cc1ccc(C(=O)NCC(=O)OCc2c(F)cccc2Cl)cc1 | inactive
56 | CSCCC(=O)N1CCC(n2nccc2NC(=O)c2ccc3c(c2)OCO3)CC1 | inconclusive: 23.1 µM [activator, partial curve]
57 | O=C(NCc1cccs1)c1nn2cccnc2c1Cl | inconclusive: 25.9 µM [activator, single point]
58 | Cc1cc(C)c2c(N)c(C(=O)Nc3ccc([N+](=O)[O-])cc3)sc2n1 | inconclusive: 0.92 µM [activator, full curve, poor fit]
59 | O=C(Cn1cnc2c(nnn2Cc2ccc(F)cc2)c1=O)Nc1cccc(F)c1 | inconclusive: 20.6 µM [activator, single point]
60 | CCOC(=O)CN(C)Cc1c[nH]c2ccccc12 | inconclusive: 23.1 µM [activator, partial curve, poor fit]
61 | O=C(NC(=Nc1nc2ccccc2o1)NC(=O)c1ccccc1)c1ccccc1 | inconclusive: 23.1 µM [activator, single point]
62 | O=C(COc1ccccc1Br)Nc1ccc2c(c1)OCCCO2 | inconclusive: 0.92 µM [activator, full curve]
63 | COc1ccc(OC)c(-c2cc(C(=O)NCc3ccc(Cl)cc3)no2)c1 | inconclusive: 32.6 µM [activator, single point]
64 | Cc1ccc(-c2nn3c(C)nnc3c3ccccc23)cc1S(=O)(=O)NC(C)(C)CO | active: 20.6 µM
65 | Cc1ccc(OC(=O)c2ccc3c(=O)n4c(nc3c2)CCC4)cc1 | inactive
66 | COc1ccc(/C=C/C(=O)N(C)C2CCCCC2)cc1Br | inconclusive: 18.3 µM [activator, partial curve, poor fit]
67 | CCOC(=O)N/N=C1\CCc2ccccc21 | inconclusive: 32.6 µM [activator, partial curve, poor fit]
68 | O=C(Nc1nc(-c2ccco2)c(-c2ccco2)s1)c1cnccn1 | inactive
69 | CCCCOc1ccc(-c2nnn(CCC(=O)N3CCOCC3)n2)cc1 | inconclusive: 5.8 µM [activator, partial curve, poor fit]
70 | CN(c1ccc(O)cc1)S(=O)(=O)c1ccc2ccccc2c1 | inconclusive: 2.91 µM [activator, partial curve, poor fit]

Reference: PubChem BioAssay AID504466 (National Center for Advancing Translational Sciences (NCATS), 2011)
